# Assay results published in article PMC12136788.
# The list shows a part of the results.
# T1: UNK ZnF1-3 (human, UniProt Q9C0B0 31-174)
# T1 sequence: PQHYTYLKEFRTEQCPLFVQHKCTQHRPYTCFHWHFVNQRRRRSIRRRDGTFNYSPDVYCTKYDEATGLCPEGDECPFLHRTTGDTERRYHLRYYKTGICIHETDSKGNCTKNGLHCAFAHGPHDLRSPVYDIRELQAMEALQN
# B1: chr1:75481486:75481487:+_ENSMUSG00000051703_ENSMUST00000113575|mus_mus|FALSE|FALSE (ssRNA)
# RNA: GGGAGUUCUACAGUCCGACGAUCGGGUCCCGAGCAGGCUGUCAGUGGUCCCCGGGACCCAUACUCAUAGUCCGUGUCUGUAGGGGAGGCCAUGAAGGAACUCAGAGAGCUCCCAGUCUGCCGGUCCCGGAAGCUCUGGAUGUACAACAGAGGAUUGAGCAUCA
# B2: chr3:150289932:150289933:+_ENSG00000144895_ENST00000460851|hu_hu|hu_hu_hu_mus_False|58_108 (ssRNA)
# RNA: GGGAGUUCUACAGUCCGACGAUCCUUGUAGUUUUUCACAUCCCAUACUUCCAUUUGUCCUCGAAGAUUUCCAAAUCCAGCUAAUACUAAUAUAUGUCCAUGAGGGCUAUAGAAGGCUGCGUUGCGAGGACCAGUCCCAAAGUCCAACAGAGGAUUGAGCAUCA
# B3: chr5:21408736:21408737:-_ENSMUSG00000042453_ENSMUST00000161356|mus_hu|mus_mus_mus_hu_False|28_108 (ssRNA)
# RNA: GGGAGUUCUACAGUCCGACGAUCGUUGACAGCAUUAUAGAUGGUGGCUUCAUGGAACUGGAAAGGGGAGCAGCCAAUGCUGUUAGAAGAGGAAGGAAGGCACUGGGUCUGCACGAGCUGCCAGGAAUCCGAUCUUGCAUCCUUCAACAGAGGAUUGAGCAUCA
# B4: chr10:126663389:126663390:-_ENSMUSG00000074657_ENSMUST00000099172|mus_hu|FALSE|FALSE (ssRNA)
# RNA: GGGAGUUCUACAGUCCGACGAUCGAGGAGCCUUUGAACAGUCAGUCCUAAGAGACGCUGAGACUUCUUCCACCAAAAAAAAAAAAAAAAAAAAAUGCAAACUGCCCAGGUCUGCAUUACUUUAUUUUUUAUAUUGGGGUUCUACAACAGAGGAUUGAGCAUCA
# B5: chr11:122930308:122930309:-_ENSG00000109971_ENST00000227378|hu_mus|FALSE|FALSE (ssRNA)
# RNA: GGGAGUUCUACAGUCCGACGAUCCUUGGGGAUUCUGGUAGAACCACCCACCAAGACAAUAUCAUGGAUCUGUGACUUGUCCAGCUUGGCAUCUCGAAGGGCCUUCUCUACAGGGUCCAGUGUGCCACGGAACAGGUCAGCAUUCAACAGAGGAUUGAGCAUCA
# B6: 61429435_61429555_80_3pUTR_ENSG00000104388_ENST00000262646|human|control|control (ssRNA)
# RNA: GGGAGUUCUACAGUCCGACGAUCGCCGAACAAUAACAGCCGCCGCGGCGCCUCCGCCCCGCCUCCGCGCCGACCCGGAAGUUCUGCGGCCGCCGGCGCCGCCGGAGGAAAGGGGAGGAGCCCCGCACGCUGGCCCAGCCCUGCCAACAGAGGAUUGAGCAUCA
# B7: 63008542_63008662_3152_3pUTR_ENSG00000120063_ENST00000439174|human|control|control (ssRNA)
# RNA: GGGAGUUCUACAGUCCGACGAUCCUAGAUGUAGAACUAUUCAAACACGCAUGAAUGAUACCAUGAUACCACGAACAUGCACGAUACCAUGAACUUGCAUCACGGUGCCGGGCUACGUAUGUGUAGCUCAUGGAUUACCAUGGCCAACAGAGGAUUGAGCAUCA
# B8: chr11:106643937:106643938:-_ENSMUSG00000020719_ENSMUST00000021062|mus_hu|FALSE|FALSE (ssRNA)
# RNA: GGGAGUUCUACAGUCCGACGAUCUAGGUGUAAAGAAAGUGUAUGCUGUGCCUGUUUUGGUACUGCGAGCAGUUCUUCCAAUUCGAUGAAUAUAAUCCUCUGAGGAGUUAGGGUAGUCAUAAUUGAUGACAAAUUUCACAUCUUCAACAGAGGAUUGAGCAUCA
# B9: chr7:141450121:141450122:+_ENSG00000106028_ENST00000265304|hu_mus|hu_hu_hu_mus_True|1_38 (ssRNA)
# RNA: GGGAGUUCUACAGUCCGACGAUCUCAUCCGUUCUAUGCCUUUUCUUUUGUCUGGUCACUCAGAAAUAUAAUGUUAUCAGCUAUGAUUGUUGUUGCUUGUCGCCUCACAUUGUUUUUAUCCAUGUACUCGCCAUAGUCUAUUUUCAACAGAGGAUUGAGCAUCA
# B10: chr6:39351226:39351227:-_ENSMUSG00000029922_ENSMUST00000031985|mus_mus|FALSE|FALSE (ssRNA)
# RNA: GGGAGUUCUACAGUCCGACGAUCGACAAAGUUAGAUGUGAUCCGGCAUUCGGGGCAGGACUUUAUGAUCUUGCUCUCAAAUUGUUUAGCACUUCUCCACUUGCGAAUACACUUGAGACAGUAGGUGUGGUUGCAGUUGGAGAGCAACAGAGGAUUGAGCAUCA
# B11: chr7:56126341:56126342:+_ENSG00000146731_ENST00000540286|hu_mus|hu_hu_hu_mus_True|68_78 (ssRNA)
# RNA: GGGAGUUCUACAGUCCGACGAUCCAUGUUUCUCCUCUUGGCUCUGCGCAGAGCUACUAUGCCUUCUUUUGAAAGAGCAUCUAAGGAAAAGGGGUCAAUCCCCUUUUGAUUAAUAACGACAAAUCCUUUAUCUGAGUCACCACACAACAGAGGAUUGAGCAUCA
# B12: 35988352_35989769_1864_CDS_ENSMUSG00000027710_ENSMUST00000011492|mouse|control|control (ssRNA)
# RNA: GGGAGUUCUACAGUCCGACGAUCCAGGUUUUCUGGAGCGUUCUUGUCCAGCUGAGACAGGCUGAAGAGAUUCUGGAAAUAAGCUUCCACACAGAACAUGUUGGCCAACAGAACCUCGUGAUCAUGAUUCCUGAGCCCAAUUCUCAACAGAGGAUUGAGCAUCA
# B13: chrX:20185780:20185781:-_ENSG00000177189_ENST00000379565|hu_hu|FALSE|FALSE (ssRNA)
# RNA: GGGAGUUCUACAGUCCGACGAUCUUUAGUUAUAGUGAACAGGACAGCACUGGCCUCUCGUUCAGAGAAAAAUUUUUGUCUAAGAAUUUUAUCCAGCAAUUCACCUCCUUUCAUAAGUUCUGUUACUACAUACACAUACUUUCCCAACAGAGGAUUGAGCAUCA
# B14: chrX:153667120:153667121:+_ENSG00000203879_ENST00000447750|hu_mus|FALSE|FALSE (ssRNA)
# RNA: GGGAGUUCUACAGUCCGACGAUCAUUCCAGUCUCGGCCCCGGCCCAUUGAUUCAGGGGGCCCUUCCAGUAUCUGAAAGCGCUUAUAUAGCUCCUCCAGGGGUGUGAUGGAAGAGCUCUCACCCCCAUAGUAGGGGUUUCGGUCCAACAGAGGAUUGAGCAUCA
# Target: T1, UNK ZnF1-3
# Assay: nsRBNS (natural sequence RNA bind-n-seq); RBNS binding buffer (assumed for nsRBNS): 25 mM Tris pH 7.5, 150 mM KCl, 3 mM MgCl2, 0.01% Triton X-100, 500 ug/ml BSA, 20 U/ml SUPERase-In, 4 C; UNK is unkempt and MSI1 is Musashi-1; names of the RNAs are library labels; protein concentration not given here; high values mean tight binding
row,Binder,binding signal [enrichment R]
1,B1,1.81
2,B2,1.26
3,B3,1.63
4,B4,1.15
5,B5,0.422
6,B6,2.04
7,B7,0.438
8,B8,2.22
9,B9,0.376
10,B10,0.485
11,B11,1.3
12,B12,0.942
13,B13,1.15
14,B14,0.325
